Paper PMC4060991, “The Human Orphan Nuclear Receptor Tailless (TLX, NR2E1) Is Druggable” (PLoS ONE, 2014)

Target: the molecule itself
Test: AUC; sedimentation equilibrium, 4 °C, 10 µM TLX LBD, three rotor speeds (11,000, 18,000, 22,000 r.p.m.), 20 mM Tris-HCl, 150 mM NaCl, 5 mM DTT, 10% glycerol, 1% DMSO, 2 mM CHAPS, pH 8.0; global fit, monomer-dimer equilibrium (dimer to monomers)

B1: human TLX ligand binding domain (TLX LBD, […]) (domain or fragment)
chain: not shown
notes: cloned into pET-46 Ek/LIC with an N-terminal His6-tag followed by a TEV protease cleavage site; on SDS-PAGE the protein runs at 25 kDa; also called Tailless; NR2E1; source: E. coli BL21 (DE3) star, purified (Ni2+-NTA, size exclusion chromatography on Superdex 200)
**Q.** B1 was tested. Which Kd did it give?
**A.** 10 µM

**Q.** And the “stoichiometry N” value?
**A.** 2
